For 10 substances, binding results are on record in publication PMC3751744.

Amino acid sequences for entries named in this document (tags omitted). A change or cut given only in a name is not applied to a line headed by its entry. Chains listed by the source or under a name are the forms on record and can include a tag or linker.
UniProt P62873: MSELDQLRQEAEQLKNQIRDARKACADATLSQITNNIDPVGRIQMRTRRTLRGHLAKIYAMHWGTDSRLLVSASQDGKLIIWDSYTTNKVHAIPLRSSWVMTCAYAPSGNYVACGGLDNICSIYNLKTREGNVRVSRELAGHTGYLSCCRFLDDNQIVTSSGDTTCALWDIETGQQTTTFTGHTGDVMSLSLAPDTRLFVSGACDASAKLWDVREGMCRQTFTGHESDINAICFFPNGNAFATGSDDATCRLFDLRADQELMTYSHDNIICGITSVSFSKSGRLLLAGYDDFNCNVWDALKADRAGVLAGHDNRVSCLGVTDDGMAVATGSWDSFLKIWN
UniProt P49789: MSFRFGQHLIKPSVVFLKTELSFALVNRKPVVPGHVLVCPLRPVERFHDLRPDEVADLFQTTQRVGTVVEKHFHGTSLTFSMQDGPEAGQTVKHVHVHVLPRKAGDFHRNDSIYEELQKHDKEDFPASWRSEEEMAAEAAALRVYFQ
UniProt P29992: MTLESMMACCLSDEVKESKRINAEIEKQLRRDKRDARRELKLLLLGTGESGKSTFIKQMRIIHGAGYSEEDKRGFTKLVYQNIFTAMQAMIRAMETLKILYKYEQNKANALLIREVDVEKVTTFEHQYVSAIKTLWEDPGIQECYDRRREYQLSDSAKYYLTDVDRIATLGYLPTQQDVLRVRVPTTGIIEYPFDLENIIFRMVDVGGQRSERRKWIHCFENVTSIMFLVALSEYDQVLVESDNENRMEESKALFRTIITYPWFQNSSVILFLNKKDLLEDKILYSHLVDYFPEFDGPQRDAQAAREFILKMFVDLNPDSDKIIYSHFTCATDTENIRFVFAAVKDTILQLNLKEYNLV
UniProt Q14344: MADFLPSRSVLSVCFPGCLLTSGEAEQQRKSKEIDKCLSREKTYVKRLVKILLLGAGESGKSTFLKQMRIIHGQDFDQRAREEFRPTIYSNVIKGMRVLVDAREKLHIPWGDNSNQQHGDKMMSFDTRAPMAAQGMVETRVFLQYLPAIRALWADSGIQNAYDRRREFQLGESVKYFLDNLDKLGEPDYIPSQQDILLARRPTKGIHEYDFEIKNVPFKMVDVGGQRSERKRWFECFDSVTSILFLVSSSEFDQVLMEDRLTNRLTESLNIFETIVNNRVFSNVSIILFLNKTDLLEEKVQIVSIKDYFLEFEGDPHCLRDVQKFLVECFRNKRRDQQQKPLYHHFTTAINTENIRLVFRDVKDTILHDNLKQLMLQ
UniProt O95837: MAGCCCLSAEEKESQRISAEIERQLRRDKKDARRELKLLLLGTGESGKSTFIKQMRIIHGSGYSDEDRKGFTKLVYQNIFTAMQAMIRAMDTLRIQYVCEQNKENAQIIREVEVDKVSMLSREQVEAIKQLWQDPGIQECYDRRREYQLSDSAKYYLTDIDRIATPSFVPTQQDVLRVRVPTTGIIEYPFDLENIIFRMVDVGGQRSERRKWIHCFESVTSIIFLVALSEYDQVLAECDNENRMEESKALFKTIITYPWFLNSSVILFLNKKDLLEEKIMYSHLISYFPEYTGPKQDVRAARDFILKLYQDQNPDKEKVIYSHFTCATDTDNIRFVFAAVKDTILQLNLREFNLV
UniProt P04899: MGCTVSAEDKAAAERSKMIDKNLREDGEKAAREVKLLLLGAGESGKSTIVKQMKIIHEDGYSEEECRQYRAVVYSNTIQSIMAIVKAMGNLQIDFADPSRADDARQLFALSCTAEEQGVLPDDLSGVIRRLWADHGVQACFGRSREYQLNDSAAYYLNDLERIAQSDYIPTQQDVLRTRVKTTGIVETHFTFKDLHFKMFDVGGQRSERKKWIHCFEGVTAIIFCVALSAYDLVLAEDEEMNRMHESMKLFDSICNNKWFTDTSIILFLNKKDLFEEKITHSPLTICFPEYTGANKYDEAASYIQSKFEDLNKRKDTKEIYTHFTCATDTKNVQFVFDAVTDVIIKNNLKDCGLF
UniProt P50148: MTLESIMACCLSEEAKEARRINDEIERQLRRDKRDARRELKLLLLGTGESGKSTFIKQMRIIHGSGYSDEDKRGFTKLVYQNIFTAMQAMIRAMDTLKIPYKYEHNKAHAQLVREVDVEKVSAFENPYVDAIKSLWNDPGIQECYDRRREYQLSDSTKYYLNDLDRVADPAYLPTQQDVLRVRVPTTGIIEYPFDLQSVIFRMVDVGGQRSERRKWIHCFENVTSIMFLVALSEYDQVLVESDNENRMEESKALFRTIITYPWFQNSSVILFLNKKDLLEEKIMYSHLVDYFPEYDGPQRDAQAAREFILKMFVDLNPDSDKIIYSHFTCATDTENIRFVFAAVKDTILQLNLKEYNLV
GαqRC (P50148, form named): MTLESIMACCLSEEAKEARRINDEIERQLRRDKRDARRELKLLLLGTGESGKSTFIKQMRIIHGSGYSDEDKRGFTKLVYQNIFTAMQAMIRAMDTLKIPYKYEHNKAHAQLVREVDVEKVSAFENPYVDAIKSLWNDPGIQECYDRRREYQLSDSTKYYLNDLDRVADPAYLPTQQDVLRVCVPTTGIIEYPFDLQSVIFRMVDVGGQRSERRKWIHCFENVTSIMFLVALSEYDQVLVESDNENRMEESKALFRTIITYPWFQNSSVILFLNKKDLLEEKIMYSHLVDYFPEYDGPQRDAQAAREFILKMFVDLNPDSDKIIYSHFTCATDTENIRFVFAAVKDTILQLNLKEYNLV
UniProt P63092: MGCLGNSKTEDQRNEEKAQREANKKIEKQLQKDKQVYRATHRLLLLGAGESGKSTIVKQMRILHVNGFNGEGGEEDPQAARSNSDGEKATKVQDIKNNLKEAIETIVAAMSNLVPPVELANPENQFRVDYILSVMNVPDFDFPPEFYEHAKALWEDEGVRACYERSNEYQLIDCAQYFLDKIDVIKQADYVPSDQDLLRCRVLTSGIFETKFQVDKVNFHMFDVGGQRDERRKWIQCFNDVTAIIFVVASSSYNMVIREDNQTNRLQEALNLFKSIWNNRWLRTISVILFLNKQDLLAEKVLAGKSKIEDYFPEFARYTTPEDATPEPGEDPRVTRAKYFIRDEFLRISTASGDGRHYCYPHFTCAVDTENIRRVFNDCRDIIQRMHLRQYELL
UniProt P19086: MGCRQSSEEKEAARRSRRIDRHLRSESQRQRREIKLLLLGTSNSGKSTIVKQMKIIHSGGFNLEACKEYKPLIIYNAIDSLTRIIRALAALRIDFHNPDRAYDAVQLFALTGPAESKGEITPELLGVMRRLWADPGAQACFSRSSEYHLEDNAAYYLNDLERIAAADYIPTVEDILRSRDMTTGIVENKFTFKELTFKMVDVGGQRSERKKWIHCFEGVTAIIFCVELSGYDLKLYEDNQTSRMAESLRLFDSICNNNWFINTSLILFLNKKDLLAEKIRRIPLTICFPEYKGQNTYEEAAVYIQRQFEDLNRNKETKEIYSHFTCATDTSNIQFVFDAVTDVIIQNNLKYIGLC
UniProt P62834: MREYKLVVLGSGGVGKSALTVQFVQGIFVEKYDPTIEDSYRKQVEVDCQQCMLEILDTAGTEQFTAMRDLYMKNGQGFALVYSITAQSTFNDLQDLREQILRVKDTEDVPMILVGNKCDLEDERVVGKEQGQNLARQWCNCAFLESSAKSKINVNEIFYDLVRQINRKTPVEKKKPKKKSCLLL

Some targets named below: Flag-Gβ1 (UniProt P62873); Flag-Fhit (human) (UniProt P49789); Flag-Fhit L25W (human) (UniProt P49789); Flag-Fhit H96D (human) (UniProt P49789); Flag-Fhit Y114F (human) (UniProt P49789).
What all share (assay): co-IP; HEK293 cells co-transfected, cross-linked with 0.5 mM DSP, lysed in RIPA buffer; lysates with anti-Flag affinity agarose gel at 4°C for 4 h; Western blot; Src, HA-Gγ2 or untagged Fhit co-expressed in some samples
In general terms: Immunoblotting shows a protein as a band on a membrane.

The target of assay [1] is Flag-Fhit I10W/L25W (human) (UniProt P49789).

These are yes or no findings as the source states them, for the method shown. In cells and extracts the contact can be indirect. Some binding calls cover weakened binding; strength is not graded here.

Take “Fhit (untagged, pcDNA3-Fhit) (from UniProt P49789 1-147)”: the binding result in the assay with Flag-Gβ1 was “no binding”.

Regarding “Gα11 (wild-type) (from UniProt P29992 1-359)”, the binding entry with Flag-Fhit (human) is “no binding”.

On to “Gα13 (wild-type) (from UniProt Q14344 1-377)”, for which the binding result with Flag-Fhit (human) is on record as “binds”.

Regarding “Gα14 (wild-type) (from UniProt O95837 1-355)”, the binding entry with Flag-Fhit (human) is listed as “no binding”.

For “Gαi2 (wild-type) (from UniProt P04899 1-355)”, the binding entry with Flag-Fhit (human) was “no binding”.

On to “Gαq (wild-type) (from UniProt P50148 1-359)”, for which the binding entry (in the assay with Flag-Fhit L25W (human); in assay [1]; with Flag-Fhit H96D (human)) was “no binding” throughout.

As to GαqRC (from UniProt P50148 1-359), the binding result (with Flag-Fhit L25W (human); with Flag-Fhit (human); in the assay with Flag-Fhit Y114F (human); in assay [1]; with Flag-Fhit H96D (human)) was “binds” in each case.

On to “Gαs (wild-type) (from UniProt P63092 1-394)”, for which the binding entry with Flag-Fhit (human) was “binds”.

For the substance “Gαz (wild-type) (from UniProt P19086 1-355)”, in the assay with Flag-Fhit (human), the binding result is listed as “no binding”.

HA-Rap1A (from UniProt P62834 1-184): in the assay with Flag-Fhit (human), the binding entry is “no binding”.
